This is one part of the list.
Legend:
Assay in all cases: glycan array binding signal (z-score within array); higher = stronger binding
Conditions in all cases: glycan notation: IUPAC condensed, linker removed; mutation: D109R
Fuc(a1-2)Gal = molecular target: Fuc(a1-2)Gal
Outline: (§1)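 Columns mapping to the same glycan were averaged after glycan names were converted to IUPAC-condensed notation. The data come from 3228 arrays in the Consortium for Functional Glycomics database, limited to those with an available protein sequence. Binding is reported as a within-array Z-score averaged across arrays of one protein sequence and across linkers.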

Fuc(a1-2)Gal(b1-3)GalNAc = molecular target: Fuc(a1-2)Gal(b1-3)GalNAc
Outline: as §1

[1] = molecular target: Fuc(a1-2)Gal(b1-3)GalNAc(a1-3)[Fuc(a1-2)]Gal(b1-4)Glc
Outline: as §1

[2] = molecular target: Fuc(a1-2)Gal(b1-3)GalNAc(a1-3)[Fuc(a1-2)]Gal(b1-4)GlcNAc
Outline: as §1

[3] = molecular target: Fuc(a1-2)Gal(b1-3)GalNAc(b1-3)Gal
Outline: as §1

[4] = molecular target: Fuc(a1-2)Gal(b1-3)GalNAc(b1-3)Gal(a1-4)Gal(b1-4)Glc
Outline: as §1

[5] = molecular target: Fuc(a1-2)Gal(b1-3)GalNAc(b1-4)[Neu5Ac(a2-3)]Gal(b1-4)Glc
Outline: as §1

Fuc(a1-2)Gal(b1-3)GlcNAc = molecular target: Fuc(a1-2)Gal(b1-3)GlcNAc
Outline: as §1

[6] = molecular target: Fuc(a1-2)Gal(b1-3)GlcNAc(b1-2)Man(a1-3)[Fuc(a1-2)Gal(b1-3)GlcNAc(b1-2)Man(a1-6)]Man(b1-4)GlcNAc(b1-4)GlcNAc
Outline: as §1

[7] = molecular target: Fuc(a1-2)Gal(b1-3)GlcNAc(b1-2)Man(a1-3)[Fuc(a1-2)Gal(b1-3)GlcNAc(b1-2)Man(a1-6)]Man(b1-4)GlcNAc(b1-4)[Fuc(a1-6)]GlcNAc
Outline: as §1

[8] = molecular target: Fuc(a1-2)Gal(b1-3)GlcNAc(b1-3)Gal(b1-4)Glc
Outline: as §1

[9] = molecular target: Fuc(a1-2)Gal(b1-3)GlcNAc(b1-3)GalNAc
Outline: as §1

[10] = molecular target: Fuc(a1-2)Gal(b1-3)GlcNAc(b1-3)[Fuc(a1-2)Gal(b1-3)GlcNAc(b1-6)]GalNAc
Outline: as §1

[11] = molecular target: Fuc(a1-2)Gal(b1-3)GlcNAc(b1-3)[Gal(b1-4)GlcNAc(b1-6)]Gal(b1-4)Glc
Outline: as §1

[12] = molecular target: Fuc(a1-2)Gal(b1-3)GlcNAc(b1-3)[Neu5Ac(a2-6)Gal(b1-4)GlcNAc(b1-6)]Gal(b1-4)Glc
Outline: as §1

[13] = molecular target: Fuc(a1-2)Gal(b1-3)GlcNAc6S
Outline: as §1

[14] = molecular target: Fuc(a1-2)Gal(b1-3)[Fuc(a1-4)]GlcNAc
Outline: as §1

[15] = molecular target: Fuc(a1-2)Gal(b1-3)[Fuc(a1-4)]GlcNAc(b1-2)Man(a1-3)[Fuc(a1-2)Gal(b1-3)[Fuc(a1-4)]GlcNAc(b1-2)Man(a1-3)]Man(b1-4)GlcNAc(b1-4)GlcNAc
Outline: as §1

[16] = molecular target: Fuc(a1-2)Gal(b1-3)[Fuc(a1-4)]GlcNAc(b1-2)Man(a1-3)[Fuc(a1-2)Gal(b1-3)[Fuc(a1-4)]GlcNAc(b1-2)Man(a1-6)]Man(b1-4)GlcNAc(b1-4)[Fuc(a1-6)]GlcNAc(b1-4)[Fuc(a1-6)]GlcNAc
Outline: as §1

[17] = molecular target: Fuc(a1-2)Gal(b1-3)[Fuc(a1-4)]GlcNAc(b1-3)[Fuc(a1-3)[Gal(b1-4)]GlcNAc(b1-6)]Gal(b1-4)Glc
Outline: as §1

[18] = molecular target: Fuc(a1-2)Gal(b1-3)[Fuc(a1-4)]GlcNAc(b1-3)[Gal(b1-4)GlcNAc(b1-6)]Gal(b1-4)Glc
Outline: as §1

[19] = molecular target: Fuc(a1-2)Gal(b1-4)Fuc(a1-3)]GlcNAc(b1-2)Man(a1-3)[Fuc(a1-2)Gal(b1-4)[Fuc(a1-3)]GlcNAc(b1-2)Man(a1-6)]Man(b1-4)GlcNAc(b1-4)GlcNAc
Outline: as §1

Fuc(a1-2)Gal(b1-4)Glc = molecular target: Fuc(a1-2)Gal(b1-4)Glc
Outline: as §1

Fuc(a1-2)Gal(b1-4)Glc6S = molecular target: Fuc(a1-2)Gal(b1-4)Glc6S
Outline: as §1

Fuc(a1-2)Gal(b1-4)GlcNAc = molecular target: Fuc(a1-2)Gal(b1-4)GlcNAc
Outline: as §1

[20] = molecular target: Fuc(a1-2)Gal(b1-4)GlcNAc(b1-2)Man
Outline: as §1

[21] = molecular target: Fuc(a1-2)Gal(b1-4)GlcNAc(b1-2)Man(a1-3)[Fuc(a1-2)Gal(b1-4)GlcNAc(b1-2)Man(a1-6)]Man(b1-4)GlcNAc(b1-4)GlcNAc
Outline: as §1

[22] = molecular target: Fuc(a1-2)Gal(b1-4)GlcNAc(b1-2)Man(a1-3)[Fuc(a1-2)Gal(b1-4)GlcNAc(b1-2)Man(a1-6)]Man(b1-4)GlcNAc(b1-4)[Fuc(a1-6)]GlcNAc
Outline: as §1

[23] = molecular target: Fuc(a1-2)Gal(b1-4)GlcNAc(b1-2)[Fuc(a1-2)Gal(b1-4)GlcNAc(b1-4)]Man(a1-3)[Fuc(a1-2)Gal(b1-4)GlcNAc(b1-2)Man(a1-6)]Man(b1-4)GlcNAc(b1-4)GlcNAc
Outline: as §1

[24] = molecular target: Fuc(a1-2)Gal(b1-4)GlcNAc(b1-3)Gal(b1-4)GlcNAc
Outline: as §1

B1: MpL2 (Macrolepiota procera) (protein)
chain: MSTQVSSGQTYKITNVKAGTVIDLSGEDNKSIIGYPYHSGKNQQWTFNWTGKAWTLRSASSGSYLGIEGTPADGTRLVAVNDPFEWHIWRDEANENAFRIFVPFTNYNLRLSGYGDTTPGTPVQLWWTWEGLHQTWTIDRP
glycan array binding signal (z-score) (Fuc(a1-2)Gal): -0.251
glycan array binding signal (z-score) (Fuc(a1-2)Gal(b1-3)GalNAc): -0.246
glycan array binding signal (z-score) [1]: -0.245
glycan array binding signal (z-score) [2]: -0.263
glycan array binding signal (z-score) [3]: -0.24
glycan array binding signal (z-score) [4]: -0.257
glycan array binding signal (z-score) [5]: -0.259
glycan array binding signal (z-score) (Fuc(a1-2)Gal(b1-3)GlcNAc): -0.267
glycan array binding signal (z-score) [6]: -0.212
glycan array binding signal (z-score) [7]: -0.262
glycan array binding signal (z-score) [8]: -0.257
glycan array binding signal (z-score) [9]: -0.267
glycan array binding signal (z-score) [10]: -0.226
glycan array binding signal (z-score) [11]: -0.17
glycan array binding signal (z-score) [12]: -0.235
glycan array binding signal (z-score) [13]: -0.247
glycan array binding signal (z-score) [14]: -0.259
glycan array binding signal (z-score) [15]: -0.244
glycan array binding signal (z-score) [16]: -0.251
glycan array binding signal (z-score) [17]: -0.228
glycan array binding signal (z-score) [18]: -0.099
glycan array binding signal (z-score) [19]: -0.148
glycan array binding signal (z-score) (Fuc(a1-2)Gal(b1-4)Glc): -0.245
glycan array binding signal (z-score) (Fuc(a1-2)Gal(b1-4)Glc6S): -0.24
glycan array binding signal (z-score) (Fuc(a1-2)Gal(b1-4)GlcNAc): -0.255
glycan array binding signal (z-score) [20]: -0.267
glycan array binding signal (z-score) [21]: -0.248
glycan array binding signal (z-score) [22]: -0.232
glycan array binding signal (z-score) [23]: -0.244
glycan array binding signal (z-score) [24]: -0.273

— the supplement of paper PMC8728848
